# Test results taken from PubChem BioAssay AID485344 (National Center for Advancing Translational Sciences (NCATS), 2010).
# Among all 340,000 compounds or so, about 6,900 (2%) were called active. No stated cut-off is given here; in the data, active means inhibition above about 30%; inactive means below that, where a call was filed. Only a part is listed here, and it is no random draw. The source gives no active or inactive call for entries shown without one.
# Target: D(2) dopamine receptor (Homo sapiens) (UniProt P14416)
# UniProt P14416, sequence (P14416 whole entry, looked up): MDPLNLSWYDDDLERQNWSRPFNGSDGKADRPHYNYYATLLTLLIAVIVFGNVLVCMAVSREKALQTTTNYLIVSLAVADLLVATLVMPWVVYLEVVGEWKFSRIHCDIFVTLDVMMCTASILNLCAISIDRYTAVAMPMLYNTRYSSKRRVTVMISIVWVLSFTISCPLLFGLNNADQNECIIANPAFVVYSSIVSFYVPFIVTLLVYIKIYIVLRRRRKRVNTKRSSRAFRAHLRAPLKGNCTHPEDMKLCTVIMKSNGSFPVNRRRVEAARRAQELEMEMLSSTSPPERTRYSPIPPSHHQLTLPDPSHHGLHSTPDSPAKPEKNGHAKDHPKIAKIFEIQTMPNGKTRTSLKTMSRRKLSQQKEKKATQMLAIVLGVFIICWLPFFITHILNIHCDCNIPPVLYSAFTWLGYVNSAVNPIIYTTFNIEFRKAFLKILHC
# Experiment: HTS Assay for Allosteric Antagonists of the Human D2 Dopamine Receptor: Primary Screen for Antagonists; further: 0% is about no effect
# Settings: HEK293 TREx D2 cells, calcium flux, dopamine EC80; at 10 µM; stronger effect = higher value
# Procedure, shortened: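 Antagonism is scored as inhibition of an EC80 dopamine-evoked calcium signal in a force-coupled, tetracycline-inducible HEK293 T-REx D2 line, with compound present 180 s before agonist.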
row,SMILES,inhibition
1,O=C(Cc1ccc(F)cc1)Nc1cccc(-c2nc3cccnc3s2)c1,2.93%
2,COc1ccc(-c2cc(C(=O)NCCc3ccccc3)c3c(-c4ccccc4)[nH]nc3n2)cc1,0.871%
3,CC(=O)N1CCCC1c1nc2ccccc2n1Cc1cc(C)ccc1C (stereo not drawn),10%
4,CCOC(=O)N1CCN(S(=O)(=O)N2CCCC(C(=O)NCc3ccccc3OC)C2)CC1 (stereo not drawn),-3.98%
5,Cc1ccc2ccc3cc(C(=O)Nc4ccc(C)c(F)c4)nc3c2[nH]1,6.79%
6,CCOC(=O)c1ccc(CN(Cc2ccc(F)cc2)S(=O)(=O)c2cc(C(=O)Nc3ccccc3CC)ccc2F)cc1,-2.19%
7,COc1ccc(NC(=O)C2CCCN(S(=O)(=O)c3ccc4[nH]c(=O)ccc4c3)C2)cc1OC (stereo not drawn),8.98%
8,Cc1cccc(NC(=O)CSc2nc(C)c(Cc3ccccc3)c(=O)[nH]2)c1C,2.97%
9,Cc1ccc(CNC(=O)c2cc(Sc3ccc(F)cc3F)nc3ccccc23)cc1,12.6%
10,CCC(C(=O)N(C)Cc1ccccc1)n1nc(C)c2sc3ccccc3c2c1=O (stereo not drawn),-1.28%
11,COc1ccc(CNC(=O)CCc2c(C)nn(-c3ccc(N4CCOCC4)nn3)c2C)cc1,14.1%
12,COc1ccc(CCNC(=O)C2=C(C)C(=O)OC23CCCCC3)c(OC)c1,-4.6%
13,COc1cc(OC)c(NC(=O)CN(C)S(=O)(=O)c2ccc3c(c2)CCCC(=O)N3)cc1Cl,6.13%
14,CCc1ccc(C(=O)c2cn(CC(=O)Nc3cccc(C)c3C)c3nc(C)ccc3c2=O)cc1,24%
15,CCCCN(CC)C(=O)C1CCC(CNS(=O)(=O)c2cccc3nsnc23)CC1 (stereo not drawn),0.915%
16,Cc1cc(NC(=O)c2ccco2)cc(-c2nc3cc(Cl)ccc3o2)c1O,4.3%
17,COc1ccccc1C(=O)N(Cc1ccco1)Cc1ccccc1F,-1.6%
18,COc1ccc(Cl)cc1NC(=O)CN1C(=O)CSc2ccc(S(=O)(=O)N3CCCC3)cc21,-1.67%
19,CCOc1ccc(NC(=O)CCc2c(C)nc3c(c(C)nn3-c3ccccc3)c2C)cc1,-1.67%
20,CCOc1ccc(NC(=O)CC2C(=O)N(c3cccc(C)c3)C(=O)N2CCC2=CCCCC2)cc1 (stereo not drawn),10%
21,CCc1ccc(CN(Cc2ccco2)C(=O)c2ccc(C)cc2)cc1,26%
22,Cc1ccc(S(=O)(=O)n2nc(C)c(S(=O)(=O)N3CCCCC3)c2C)cc1,-4.01%
23,COc1cccc(CN2CCc3ccc(NC(=O)CCc4ccc(C)cc4)cc3C2)c1O,active: 30.6%
24,CC(=O)Nc1ccccc1-c1nc2ccccc2n(C(C)C(=O)Nc2cccc(C)c2C)c1=O (stereo not drawn),4.33%
25,CCN(CC)c1ccc(CN(C(=O)c2cccs2)C2CCS(=O)(=O)C2)cc1 (stereo not drawn),active: 30.1%

row,SMILES,inhibition
1,O=C(Nc1ccccc1)N(Cc1cccs1)c1ccc(Cl)cc1,-7.79%
2,CC(=O)N(Cc1cccnc1)c1nc2cc(C)cc(C)c2s1,-25.6%
3,Cc1ccc(-n2c(=O)[nH]c3sc4c(c3c2=O)CCCC4)cc1,11.6%
4,CCCCNC(=O)c1cc(-c2ccc(Cl)c(Cl)c2)on1,1.67%
5,Cc1cccn2c(=O)cc(COc3ccc(NC(=O)C(C)Oc4ccccc4)cc3)nc12 (stereo not drawn),15.1%
6,NS(=O)(=O)c1ccc(NC(=O)CN2CCN(c3ccc(F)cc3)CC2)cc1,5.35%
7,Cn1c(=O)c2c(-c3ccccc3Br)n(Cc3ccccc3)cc2n(C)c1=O,-19.8%
8,COc1ccc(-n2c(SCC(=O)NC3CCCCC3)nc3c([nH]c4ccccc43)c2=O)cc1,-14.5%
9,COc1ccc(-c2cc3c(=O)n(CC(=O)Nc4cc(C)ccc4C)ccn3n2)cc1,12.3%
10,Cc1ccc(Cl)cc1-n1ncc2c(NCCC3=CCCCC3)ncnc21,4.8%
11,CCOc1ccc(OCC)c(-n2cnnn2)c1,8.97%
12,Cc1c(NC(=O)Nc2ccc(Cl)c(C(F)(F)F)c2)c(=O)n(-c2ccccc2)n1C,-0.017%
13,Fc1ccccc1N1CCN(c2ncnc3onc(-c4cccc(Cl)c4)c23)CC1,16.4%
14,COc1cccc(OCc2cc(=O)n3cc(C)sc3n2)c1,16.8%
15,Cc1ccc(NC(=O)Cn2cc(C(=O)c3ccco3)c3ccccc32)c(C)c1,-1.57%
16,CCOc1cc(C2CC(=O)Nc3c2c(=O)nc(SCc2cccc(Cl)c2)n3C)ccc1O (stereo not drawn),-5.78%
17,O=C(Nc1cccc(Cl)c1)c1cc(S(=O)(=O)N2CCCc3ccccc32)ccc1F,14.6%
18,Cc1ccccc1CNC(=O)c1cc2cccc3c2n1CC(C)S3 (stereo not drawn),11.7%
19,COc1ccc(-c2cc(C(=O)Nc3sc4c(c3C(N)=O)CCC(C)C4)no2)cc1 (stereo not drawn),-10.3%
20,CC(=O)Nc1cccc(NC(=O)CSc2nccn2Cc2ccco2)c1,-26.3%
21,CCOc1ccc(-c2nnc(SCC(=O)c3ccc(F)cc3)n2-c2ccccc2)cc1,3.86%
22,Cc1ccc(S(=O)(=O)C(CNC(=O)COc2ccc(Cl)cc2)c2ccco2)cc1 (stereo not drawn),20.8%
23,Cc1ccc(NC(=O)N2CCC(C(=O)NCc3ccccc3)CC2)cc1,active: 39.2%
24,Cc1ccc(NC(=O)c2ccc3c(c2)NC(=O)c2ccccc2S3)cc1,-3.63%
25,CCN(CC)CCCNC(=O)C(=O)Nc1ccc2nc3n(c(=O)c2c1)CCCCC3,-2.89%

row,SMILES,inhibition
1,Cc1ccc(Cn2ccnc2SCC(=O)Nc2ccc3c(c2)OCCO3)cc1,-5.01%
2,COc1ccc(/C=C/C(=O)Nc2ccc(Cl)cc2Cl)cc1,-8.31%
3,O=C(CN1C(=O)C2(SCC(=O)N2c2ccccc2)c2ccccc21)NCCc1ccccc1 (stereo not drawn),-5.67%
4,CCc1ccc(NC(=O)CSc2nc3c(sc4ccccc43)c(=O)n2CCN(CC)CC)cc1,-6.33%
5,Cc1ccc(CNS(=O)(=O)c2cc3c(cc2C)N(C)CCO3)cc1,26.7%
6,Cc1cn2c(=O)cc(COC(=O)c3ccccc3F)nc2s1,15.5%
7,COc1cc(C)ccc1OCCSc1nc2ccc(NC(=O)c3cccs3)cc2s1,-11.2%
8,Cc1ccc(C(=O)Nc2ccccc2C(=O)OCc2cc(=O)n3nc(C4CC4)sc3n2)cc1,1.78%
9,Cc1ccc(CSCCC(=O)N2CCN(c3cc(C)ccc3C)CC2)cc1,-23.9%
10,CCCN(CCC)C(=O)C1CCCN(c2ncnc3onc(-c4ccc(F)cc4)c23)C1 (stereo not drawn),6.07%
11,COc1ccc(-c2noc(CN(C(=O)Cc3ccc(C)cc3)C(C)C)n2)cc1,16.3%
12,COCCCNC(=O)c1sc2nc(C)c(C(=O)Nc3ccc(C)cc3C)c(-c3ccc(Br)cc3)c2c1N,-1.81%
13,COc1ccccc1N1CCN(CC(O)COCCOc2ccc(Br)cc2)CC1 (stereo not drawn),active: 78.5%
14,CCC(CC)C(=O)NCc1nc2cccnc2n1Cc1ccc(F)cc1,6.02%
15,O=C(NCCCO)C(=O)Nc1c2c(nn1-c1ccccc1)CSC2,15.5%
16,COc1cccc(CNC(=O)C2CCN(C(=O)c3sccc3-n3cccc3)CC2)c1,-11.1%
17,CCOC(=O)c1cc(-c2ccc(OC)cc2)n(CCC(=O)Nc2cccc(C(C)=O)c2)c1C,-0.832%
18,COc1ccc(CNS(=O)(=O)c2ccc(F)c(C(=O)Nc3c(C)cc(C)cc3C)c2)cc1,-0.531%
19,Cc1cc2oc(C(=O)Nc3sc4c(c3C(=O)NCc3ccccc3)CCCC4)cc(=O)c2cc1C,3.31%
20,CN(C)c1ccc(CNC(=O)CN2C(=O)CCn3nc(-c4cn(C)c5ccccc45)cc32)cc1,9.58%
21,COc1cccc(-c2nc3c(c(SCc4ccccc4Cl)n2)Cc2c(CO)cnc(C)c2O3)c1,12.1%
22,Cc1ccc(CNC(=O)CN2C(=O)CSc3ccc(S(=O)(=O)N4CCCC4)cc32)cc1,-5.11%
23,CCc1ccc(C(=O)CSc2nc(-c3ccccc3)nc3c2CCCC3)cc1,-24.8%
24,COc1cccc(CNS(=O)(=O)c2ccc3c(c2)N(C(C)=O)CCO3)c1,active: 61.4%
25,COc1ccc2nc3sc(C(=O)N4CCN(c5ccc(F)cc5)CC4)cc3cc2c1,-3.65%

row,SMILES,inhibition
1,Cc1ccc(C)c(N2CCN(S(=O)(=O)c3ccc4c(c3)CCCN4C(=O)C3CCC3)CC2)c1,3.71%
2,Cc1ccc(NC(=O)C(C)Sc2nc(-c3ccccc3)cc(=O)[nH]2)cc1 (stereo not drawn),active: 36.5%
3,Cc1ccc([N+](=O)[O-])c(Oc2ncnc3c2oc2ccccc23)c1,6.44%
4,Cc1ccc(NC(=O)CCCN2C(=O)COc3ccc(C)cc32)c(C)c1,0.76%
5,COc1ccc2c(Sc3ccccc3)c(C(=O)N3CCC(C)CC3)[nH]c2c1,19.3%
6,CCCn1c2ccccc2c2cnn(CC(=O)NC(C)CC)c(=O)c21 (stereo not drawn),-18.9%
7,COc1ccc(OC(=O)CSc2nnc(-c3ccc(F)cc3)o2)cc1,19.6%
8,CCC(=O)N1CCN(c2nc3c(C)cccc3s2)CC1,-16.8%
9,CCCCOC(=O)/C(C#N)=C/c1ccc(-c2ccc(Br)cc2)o1,-12.2%
10,NC(=O)Cn1c(=O)n(CCCCCC(=O)NCc2ccccc2Cl)c(=O)c2sccc21,-2.92%
11,Cc1ccc(/C=C/C(=O)Oc2ccc(C#N)cc2)o1,active: 48.4%
12,COc1ccc(C2C(=O)N(C3CCCCCC3)CC(=O)N2Cc2ccccc2)cc1 (stereo not drawn),10.3%
13,COC(=O)c1c(-c2cccs2)csc1NC(=O)COc1ccccc1,3.59%
14,CC(CNC(=O)c1ccc(Nc2nc3ccccc3n3nnnc23)cc1)c1ccccc1 (stereo not drawn),12.4%
15,CCOC(=O)c1c(-c2ccc(C)cc2C)csc1NC(=O)c1ccccc1Cl,11.2%
16,NC(=O)C1CCN(C(=O)c2ccc3c(c2)N(Cc2cccc(Cl)c2)C(=O)c2ccccc2S3(=O)=O)CC1,-2.48%
17,Cc1ccc2c(=O)cc(C(=O)Nc3c(C(=O)c4ccccc4)oc4ccccc34)oc2c1,-2.27%
18,CCOc1ccc(NS(=O)(=O)c2ccc3[nH]cc(C(=O)N(C)C4CCCCC4)c(=O)c3c2)cc1,-0.0685%
19,O=C(NCCCN1CCCCC1)c1ccc2c(c1)sc1nc(-c3ccc(F)cc3)cn12,19.7%
20,CCc1ccc(-n2c(=O)c3ccc(C(=O)NCCc4ccccc4)cc3n(Cc3ccccc3C#N)c2=O)cc1,17.1%
21,CCOc1ccccc1OCCCNCc1ccco1,active: 30.6%
22,O=C(Nc1ccc2nc(SCC(=O)N3CCCC3)sc2c1)c1cccc(F)c1,-16.3%
23,NC[C@H]1O[C@H](O[C@H]2[C@H](O)[C@@H](O[C@H]3O[C@H](CO)[C@@H](O)[C@H](N)[C@H]3O)[C@H](N)C[C@@H]2N)[C@H](N)C[C@@H]1O,active: 36.9%
